Measurements from the supplement of paper PMC9334596.
Where “and” joins values, the source holds several entries; their conditions need not be identical. Equal entries are not always repeated. In all, about 5,300 compounds were measured (“PER2::LUC luminescence relative to vehicle control”: median about 0.96, highest 2% from about 1.3 on). Some of the results follow.

System: mPer2Luc MEF
Test: PER2::LUC luminescence relative to vehicle control (fold of vehicle); higher = higher PER2::LUC reporter signal
Settings: 10 µM
Summary of the method: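 In 384-well plates, ~3000 mPer2Luc reporter mouse embryonic fibroblasts per well were cultured in DMEM with 10% FBS at 37 °C and 5% CO2 for 48 h before compounds from commercial libraries were added at 10 μM. ONE-Glo luciferase readings were taken 24 h and 30 h after treatment. Each value is PER2::LUC luminescence given as fold of vehicle control.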

| Compound | PER2::LUC luminescence (time after treatment 24 h) | PER2::LUC luminescence (time after treatment 30 h) |
| --- | --- | --- |
| Nc1nccs1 | 1.03 | 0.912 |
| NC(=O)c1cccnc1 | 0.907 and 1.02 | 0.911 and 1.21 |
| O=S(=O)(NC1CCNCC1)c1cc(S(=O)(=O)c2ccccc2)ccc1C(F)(F)F | 0.906 | 0.927 |
| CCCc1nc(C(C)(C)O)c(C(=O)OCc2oc(=O)oc2C)n1Cc1ccc(-c2ccccc2-c2nnn[nH]2)cc1 | 0.605 | 0.653 |
| Cn1c(=O)c2c(ncn2CC(O)CO)n(C)c1=O (stereo not drawn) | 0.855 and 0.96 | 1.08 and 0.885 |
| C=CC1=C(C)C2=CC3=NC(=C(CC(=O)O)C4=NC(=C(C)C4=C(O)O)C=c4[nH]c(c(C)c4CC)=CC1=N2)C(CCC(=O)O)C3C (stereo not drawn) | 0.911 | 0.984 |
| Cc1c(Cn2c(C)nc3c(C(=O)O)cc(N4CCOCC4)cc32)cccc1C(F)(F)F | 0.961 | 0.924 |
| O=C(NCc1ccc(Oc2ccccc2)cc1)c1nc(-c2cc(Br)c(O)c(Br)c2)no1 | 1.03 | 0.984 |
| CCCCCCCCCCCCCCCC[N+](C)(C)C |  | 0.191 and 0.0662 |
| Nc1cc(F)ccc1NC(=O)c1ccc(CNC(=O)/C=C/c2cccnc2)cc1 | 0.728 | 0.71 |
| NC(=O)C1(N2CCCCC2)CCN(CCCC(=O)c2ccc(F)cc2)CC1 | 0.914 | 1.08 |
| CNC1(C)C2CCC(C2)C1(C)C (stereo not drawn) | 0.974 | 1.17 |
| N#CC(=C(/N)Sc1ccccc1N)/C(C#N)=C(\N)Sc1ccccc1N | 0.834 | 0.658 |
| CC1=C(C(=O)O)N2C(=O)[C@@H](NC(=O)[C@H](N)c3ccc(O)cc3)[C@H]2SC1 | 0.974 | 0.959 |
| NC(=O)[C@@H](CCC(F)(F)F)N(Cc1ccc(-c2ncon2)cc1F)S(=O)(=O)c1ccc(Cl)cc1 | 1.28 | 1.03 |
| COc1ccc(CNCc2cccc3ccccc23)cc1 | 1.03 | 0.982 |
| O=C(O)CCC/C=C\C[C@@H]1[C@@H](/C=C/[C@H](O)C2Cc3ccccc3C2)[C@@H](F)C[C@@H]1O | 0.81 | 0.935 |
| Cc1[nH]c(/C=C2\C(=O)Nc3ccc(S(=O)(=O)Cc4c(Cl)cccc4Cl)cc32)c(C)c1C(=O)N1CCC[C@@H]1CN1CCCC1 | 0.646 | 0.685 |
| C=CCN1CCCC1CNC(=O)c1cc2nn[nH]c2cc1OC (stereo not drawn) | 0.923 | 0.938 |
| OC[C@H]1O[C@@H](O[C@H]2[C@H](O)[C@@H](O)[C@@H](O)O[C@@H]2CO)[C@H](O)[C@@H](O)[C@@H]1O | 0.982 | 0.927 |
| Nc1nc(Nc2ccc(S(N)(=O)=O)cc2)nn1C(=O)c1c(F)cccc1F | 0.924 | 0.712 |
| CC(C)c1onc(-c2c(Cl)cccc2Cl)c1COc1ccc(/C=C/c2cccc(C(=O)O)c2)c(Cl)c1 | 1.86 | 2.03 |

| Compound | PER2::LUC luminescence (time after treatment 24 h) | PER2::LUC luminescence (time after treatment 30 h) |
| --- | --- | --- |
| COc1cc(C)c2c(=O)cc(-c3ccccc3)oc2c1 | 1.64 | 1.76 |
| CCCCCCOc1nsnc1C1=CCCN(C)C1 | 0.889 | 0.859 |
| N[C@@H](CSS(=O)(=O)O)C(=O)O | 1.11 | 0.979 |
| CC(C)(Oc1ccc(C2CC2(Cl)Cl)cc1)C(=O)O (stereo not drawn) | 0.924 | 0.959 |
| c1ccc2c(-c3cnn4cc(-c5ccc(N6CCNCC6)cc5)cnc34)ccnc2c1 | 0.022 | 0.018 |
| O=c1c(N=Nc2ccc(CS(=O)(=O)O)cc2)c(-c2ccc(C[N+](=O)[O-])cc2)[nH]n1-c1ccccc1 | 1.09 | 1.08 |
| O=C(O)[C@@H](S)[C@@H](S)C(=O)O | 1.05 | 1.07 |
| CCCCNc1ncc(-c2ccc(CN3CCOCC3)cn2)c(NC2CCC(O)CC2)n1 (stereo not drawn) | 0.988 | 0.977 |
| CCOc1nc2cccc(C(=O)OC(C)OC(=O)OC3CCCCC3)c2n1Cc1ccc(-c2ccccc2-c2nn[nH]n2)cc1 (stereo not drawn) | 1.03 and 1 | 1 |
| Nc1ccc(S(N)(=O)=O)cc1 | 0.96 | 0.827 |
| Nc1ncnc2c1ncn2[C@H]1C[C@H](O)[C@@H](CO)O1 | 1.03 | 1.07 |
| CC1CCN(CCCC(=O)c2ccc(F)cc2)CC1 | 0.977 and 0.957 | 0.871 and 0.803 |
| Clc1ccc(-c2nc3sccn3c2/C=N/OCc2ccc(Cl)c(Cl)c2)cc1 | 0.997 | 1.01 |
| CCN1CCC[C@H]1CNC(=O)c1cc(S(N)(=O)=O)ccc1OC | 1.09 and 1.12 | 0.964 and 1.08 |
| COc1c(O)cc(O)c2c(=O)cc(-c3ccccc3)oc12 | 1.03 | 1.02 |
| O=c1cc(O)cc(/C=C/c2ccc(O)c(O)c2)o1 | 1.08 | 0.921 |
| Cc1ccc(NC(=S)NNc2c([N+](=O)[O-])cc(C(F)(F)F)cc2[N+](=O)[O-])cc1Cl | 0.722 | 0.87 |
| CCCNS(=O)(=O)Nc1ncnc(OCCOc2ncc(Br)cn2)c1-c1ccc(Br)cc1 | 0.986 | 1.01 |
| CC(CCc1ccc(O)cc1)NCCc1ccc(O)c(O)c1 (stereo not drawn) | 0.614 | 0.59 |
| [N-]=[N+]=N[C@]1(CO)O[C@@H](n2ccc(N)nc2=O)[C@@H](O)[C@@H]1O | 1.06 | 0.915 |
| CCOCc1cc(OC)c(-c2ccc(C[C@H](NC(=O)c3c(F)cccc3F)C(=O)O)cc2)c(OC)c1 | 0.99 | 1.02 |
| CC(=O)c1ccc(NS(C)(=O)=O)c(Oc2ccc(F)cc2F)c1 | 1.06 | 1 |

| Compound | PER2::LUC luminescence (time after treatment 24 h) | PER2::LUC luminescence (time after treatment 30 h) |
| --- | --- | --- |
| N[C@@H](CCC(=O)N[C@@H](CSN=O)C(=O)NCC(=O)O)C(=O)O | 1.1 | 1.08 |
| NC(=O)c1ncn(C2OC(COP(=O)(O)O)C(O)C2O)c1N (stereo not drawn) | 1.36 | 1.3 |
| O=c1cc(-c2ccccc2)oc2ccc(O)cc12 | 1.47 | 1.89 |
| CCC(C)(C)c1ccc(CC(C)CN2C[C@@H](C)O[C@@H](C)C2)cc1 (stereo partly drawn) | 0.968 and 0.591 | 1.04 and 0.891 |
| COc1cnc(-n2cnc(C)n2)c2[nH]cc(C(=O)C(=O)N3CCN(C(=O)c4ccccc4)CC3)c12 | 1.11 | 1.02 |
| CC(C)(C)C#Cc1cc(N(C(=O)[C@H]2CC[C@H](C)CC2)[C@H]2CC[C@H](O)CC2)c(C(=O)O)s1 | 1.14 | 1.18 |
| CC(C)N(CCC(=O)c1ccc2ccccc2c1)Cc1ccccc1 | 0.918 | 0.981 |
| CSc1ccc(/C=C2/C(C)=C(CC(=O)O)c3cc(F)ccc32)cc1 | 0.439 | 0.881 |
| COc1ccc([C@H]2Oc3cc(OC)cc(OC)c3C[C@H]2O)cc1 | 0.942 | 0.967 |
| CC[C@]12CCCN3CCc4c(n(c5ccccc45)[C@@](O)(C(=O)OC)C1)[C@@H]32 | 0.811 | 0.723 |
| COc1ccc(CCN(C)CCCC(C#N)(c2ccc(OC)c(OC)c2)C(C)C)cc1OC (racemic) | 0.776 | 0.84 |
| COc1ccc2c(c1)OCC(Cc1ccc(OC)c(OC)c1)C2=O (stereo not drawn) | 0.96 | 0.946 |
| C=CC(=O)c1ccc(CCCCCC)cc1 | 1.02 | 0.845 |
| Cn1c(=O)c(F)c(Nc2ccc(I)cc2F)c2c(=O)n(C[C@@H](O)CO)cnc21 | 0.266 | 0.151 |
| CCC[C@@H](NC(=O)N1C(=O)C(CC)(CC)[C@@H]1Oc1ccc(C(=O)N2CCN(C)CC2)cc1)c1ccc2c(c1)OCO2 | 0.821 | 0.798 |
| NCC(=O)N1C[C@H](NC(=O)c2ccccc2)C[C@H]1C(=O)O | 1.04 | 0.699 |
| O=c1[nH]c(=O)n([C@H]2C[C@H](O)[C@@H](CO)O2)cc1/C=C/Br | 0.844 and 0.688 | 0.99 and 0.957 |
| Cc1ccc(O)c([C@H](CCN(C(C)C)C(C)C)c2ccccc2)c1 | 0.848 | 0.859 |
| Cc1nc(N=Nc2ccc(S(=O)(=O)O)cc2S(=O)(=O)O)c(COP(=O)(O)O)c(C=O)c1O | 0.953 | 0.964 |
| CCCCC[C@H](CC(=O)NO)C(=O)N[C@H](C(=O)N1CCC[C@H]1CO)C(C)C | 0.578 | 0.573 |
| CC(=O)OC(C)C[N+](C)(C)C (stereo not drawn) | 1.05 | 1.25 |
| CCCCOc1ccc(CC(=O)NO)cc1 | 1.01 | 1.01 |

| Compound | PER2::LUC luminescence (time after treatment 24 h) | PER2::LUC luminescence (time after treatment 30 h) |
| --- | --- | --- |
| NC[C@H]1CC[C@H](C(=O)O)CC1 | 0.757 | 0.973 |
| C=CCc1ccccc1OCC(O)CNC(C)C (stereo not drawn) | 0.943 and 0.778 | 0.805 and 0.767 |
| Oc1c(Cl)cc(Cl)cc1Sc1cc(Cl)cc(Cl)c1O | 0.855 and 0.769 | 0.947 and 0.783 |
| COc1ccc2nc3cc(Cl)ccc3c(Nc3cc(CN4CCCC4)c(O)c(CN4CCCC4)c3)c2n1 | 0.715 | 0.746 |
| CN(C)C(=O)N=NC(=O)N(C)C | 1.1 | 0.903 |
| CCN1/C(=C/C(C)=O)Sc2ccc(OC)cc21 | 0.746 | 0.945 |
| C/N=C(/NC#N)NCCSCc1csc(NC(=N)N)n1 | 0.944 | 1.03 |
| Nc1nc(=O)c2c([nH]1)NCC(CNc1ccc(C(=O)N[C@@H](CCC(=O)O)C(=O)O)cc1)N2C=O (stereo partly drawn) | 1 and 0.696 | 0.941 and 0.777 |
| Cc1c(Cl)cccc1S(=O)(=O)Nc1nc(NCCc2ccccc2)nc2c1CN(Cc1ccccc1)CC2 | 0.881 | 0.794 |
| CC(=O)c1ccc2c(c1)N(CCCN1CCN(CCO)CC1)c1ccccc1S2 | 0.565 | 0.513 |
| O=C(O)c1cc(=O)c2c(OCC(O)COc3cccc4oc(C(=O)O)cc(=O)c34)cccc2o1 | 1.03 and 0.961 | 0.897 and 0.939 |
| O=c1c(O)c(-c2ccccc2)oc2cc(O)cc(O)c12 | 1.24 | 1.34 |
| CCN1CCCC1CNC(=O)c1cc(S(N)(=O)=O)ccc1OC (racemic) | 0.97 | 0.912 |
| CCOc1ccc(Cc2cc([C@@H]3O[C@H](CO)[C@@H](O)[C@H](O)[C@H]3O)ccc2Cl)cc1 | 0.978 and 1.06 | 1.04 and 0.951 |
| COc1cccc2c1C(=O)c1c(O)c3c(c(O)c1C2=O)C[C@@](O)(/C(CO)=N/NC(=O)CCCCCN1C(=O)C=CC1=O)C[C@@H]3O[C@H]1C[C@H](N)[C@H](O)[C@H](C)O1 | 0.416 | 0.357 |
| COC1=C(OC)C(=O)c2ccccc2C1=O | 1.09 | 0.813 |
| CCC(C)CNCC(=O)N1CCc2sccc2C1COc1cccc(C)c1 (stereo not drawn) | 0.647 | 0.499 |
| Cc1c(O)cccc1C(=O)N[C@@H](CSc1ccccc1)[C@H](O)CN1C[C@H]2CCCC[C@H]2C[C@H]1C(=O)NC(C)(C)C | 0.811 | 0.8 |
| C[C@H]1CCN(C(=O)CC#N)C[C@H]1N(C)c1ncnc2[nH]ccc12 | 1 | 1.02 |
| CN(C)CCC(c1ccccc1)c1ccccn1 (stereo not drawn) | 0.784 | 1.05 |
| Cc1cccc(Nc2nc(-c3ccncc3)cs2)c1 | 0.673 | 0.663 |
